Reference: article PMC4336329 (PLoS ONE, 2015)
Out of some 310,000 compounds screened, about 14,000 (4.5%) showed an effect of 50% or more. Effects have a minus sign here. The list shows a part of the results.

Target: human ether-à-go-go-related gene (hERG) potassium channel (human, UniProt Q12809)
Assay: primary screen, population patch clamp on CHO cells stably expressing hERG
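Also: peak tail current of the secondary pulse compared with the same well before compound.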

human ether-à-go-go-related gene (hERG) potassium channel, sequence (Q12809 whole entry, looked up): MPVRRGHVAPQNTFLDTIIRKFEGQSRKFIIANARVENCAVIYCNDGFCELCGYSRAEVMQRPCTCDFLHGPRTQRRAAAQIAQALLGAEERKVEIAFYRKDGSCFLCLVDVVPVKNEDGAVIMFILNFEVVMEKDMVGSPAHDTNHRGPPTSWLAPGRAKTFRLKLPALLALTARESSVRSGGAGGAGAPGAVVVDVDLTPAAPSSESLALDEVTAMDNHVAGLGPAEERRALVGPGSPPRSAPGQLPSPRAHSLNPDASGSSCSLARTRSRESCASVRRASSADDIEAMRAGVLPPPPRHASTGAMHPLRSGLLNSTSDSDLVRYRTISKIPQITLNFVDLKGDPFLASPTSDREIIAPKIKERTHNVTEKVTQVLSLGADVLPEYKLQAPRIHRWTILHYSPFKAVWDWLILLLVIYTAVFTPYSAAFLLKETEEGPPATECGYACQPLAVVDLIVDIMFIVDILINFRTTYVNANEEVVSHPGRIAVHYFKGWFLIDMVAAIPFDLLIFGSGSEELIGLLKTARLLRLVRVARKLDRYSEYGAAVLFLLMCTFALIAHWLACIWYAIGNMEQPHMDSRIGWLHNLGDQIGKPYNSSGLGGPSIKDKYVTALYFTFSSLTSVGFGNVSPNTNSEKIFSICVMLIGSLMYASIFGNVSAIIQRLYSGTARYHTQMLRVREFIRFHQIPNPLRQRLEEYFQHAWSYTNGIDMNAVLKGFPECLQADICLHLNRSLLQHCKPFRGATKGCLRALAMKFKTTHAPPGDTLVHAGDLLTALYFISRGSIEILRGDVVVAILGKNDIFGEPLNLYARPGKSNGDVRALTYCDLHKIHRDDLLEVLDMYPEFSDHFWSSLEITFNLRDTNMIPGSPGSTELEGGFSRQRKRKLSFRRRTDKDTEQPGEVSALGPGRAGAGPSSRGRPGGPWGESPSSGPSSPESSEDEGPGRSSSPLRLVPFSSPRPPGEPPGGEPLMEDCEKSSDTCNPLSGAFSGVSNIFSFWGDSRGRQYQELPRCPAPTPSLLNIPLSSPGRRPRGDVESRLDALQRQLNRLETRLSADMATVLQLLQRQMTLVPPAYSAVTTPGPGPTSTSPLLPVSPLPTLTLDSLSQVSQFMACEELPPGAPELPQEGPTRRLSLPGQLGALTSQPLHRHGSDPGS

Row | Compound | hERG current change (%, negative = inhibition) at 10uM
1 | COc1ccc(/C=C(/NC(=O)c2ccccc2Cl)C(=O)NCCCC(=O)O)cc1 | 27.8%
2 | CCn1c(Cc2ccccc2)nnc1SCC(=O)c1c(N)n(C2CC2)c(=O)[nH]c1=O | -9.15%
3 | O=C(O)c1cncc(C#Cc2ccccc2)c1 | 1.39%
4 | COc1cc(C)c(Cl)c(C)c1S(=O)(=O)NCc1ccc2c(c1)OCO2 | 12.8%
5 | Cc1cccc(-c2cc(C(=O)NCc3ccccn3)c3ccccc3n2)c1 | -18%
6 | CSc1ccccc1NC(=O)COC(=O)CSc1ccc(C)cc1 | 11.2%
7 | O=C1C(C2=NC(c3ccccn3)C3C(=O)N(c4ccccc4)C(=O)C23)=C(O)c2ccccc21 (centres unmarked) | 8.36%
8 | COc1ccc(/C=N/Nc2ccc(C(=O)O)cc2)cc1Br | 15%
9 | CC(C)CCn1c(SCC#N)nc2c(sc3ccccc32)c1=O | 3.96%
10 | Cc1onc(-c2c(F)cccc2Cl)c1C(=O)NC(=S)NCc1cccnc1 | -16.4%
11 | COc1cc2c(CCNC(C)=O)c[nH]c2cc1O | 4.18%
12 | O=C(Cn1cccc1C(=O)c1ccccc1)NCc1ccccn1 | -0.399%
13 | OC(CNCc1ccccc1C(F)(F)F)C(F)(F)F (centres unmarked) | 14.1%
14 | Cc1cc(C(=O)CSc2nc(N)cc(=O)[nH]2)c(C)n1Cc1ccco1 | 5.46%
15 | Cc1cc(SCC(=O)OCC(=O)c2c(N)n(C)c(=O)n(C)c2=O)c(C)cc1Br | -3.76%
16 | Nc1cccc2nsnc12 | 0.829%
17 | CCN(CC)c1nc(N(CC)CC)[nH]c(=O)n1 | 2.62%
18 | O=C(/C=C/c1ccc([N+](=O)[O-])cc1)N1CCN(c2ccccc2F)CC1 | -34.2%
19 | COc1ccc(-c2nc(C#N)c(NCc3ccc(C)cc3)o2)cc1OC | 8.12%
20 | O=C(Nc1ccc2oc(-c3ccccc3)nc2c1)c1ccc2c(c1)OCCO2 | 20.6%
21 | CC(C)NCCOc1cccc(Br)c1.O=C(O)C(=O)O | 19.7%
22 | O=C(NCc1ccco1)c1ccc2c(c1)C(=O)N(Cc1ccccc1)C2=O | -24.6%

Row | Compound | hERG current change (%, negative = inhibition) at 10uM
23 | O=C(Nc1ccc(Cl)cn1)c1ccc2nccnc2c1 | -10%
24 | Cc1ccc(NC(=O)CNCc2cccs2)c(Br)c1.Cl | -7.26%
25 | Cc1cc(OCC(=O)OCC(=O)NC2CCCC2)ccc1Cl | 14.4%
26 | CCCC(=O)c1cc(F)c(N2CCN(CCC#N)CC2)cc1C | -18.7%
27 | COc1ccc(OC(C)C(=O)N(C)Cc2nc(-c3cccc(C)c3)no2)cc1 (centres unmarked) | -7.38%
28 | Cl.c1ccc2c(c1)CN1CCCC1=N2 | -2.64%
29 | CCS(=O)(=O)Nc1cccc(C2=NN(S(C)(=O)=O)C(c3ccccc3)C2)c1 (centres unmarked) | -14.6%
30 | c1ccc(CSc2nnc3ccc(-c4cccs4)nn23)nc1 | 3.64%
31 | O=C(NCCCl)NNC(=O)c1cc2ccccc2cc1O | 8.07%
32 | O=C(O)/C=C/c1cn(-c2ccccc2)nc1-c1cc2ccccc2oc1=O | 6.56%
33 | O=C(CNCc1cccnc1)Nc1cc(C(F)(F)F)ccc1N1CCOCC1.O=C(O)C(=O)O | -67%
34 | CC(C)(C)N(Cc1ccccc1)C(=O)COC(=O)C1CCN(c2ccc(C(F)(F)F)cn2)CC1 | 21.9%
35 | O=C(O)C1CC(c2cccc(Br)c2)=NO1 (centres unmarked) | 13.1%
36 | O=C(COC(=O)C12CC3CC(CC(C3)C1)C2)NC12CC3CC(CC(C3)C1)C2 | 5.33%
37 | O=C(NNC1=Nc2ccccc2SC1)c1ccc(F)cc1 | 4.18%
38 | CC1(C)O[C@@H]2[C@H](O1)[C@@H](COS(=O)(=O)[O-])O[C@H]2n1ccc(=O)[nH]c1=O.[K+] | 11.7%
39 | COCCN(CC(=O)Nc1ccccc1)S(=O)(=O)c1ccc(S(=O)(=O)N2CCCC2)cc1 | 11%
40 | Cc1ccc(C)c(S(=O)(=O)Nc2ccc3[nH]c(=O)[nH]c3c2)c1 | 15.7%
41 | COc1cc(/C=N/NC(=O)c2ccncc2)ccc1Oc1ccc([N+](=O)[O-])cn1 | -33.3%
42 | CCc1c(C(=O)NCc2ccccc2Cl)[nH]c(C)c1C(C)=O | -3.66%
43 | O=c1n(Cc2ccccc2F)c2ccccc2n1Cc1ccccc1F | 19.4%
44 | CCOc1ccc(C(C(=O)NC2CCCCC2)N(C(=O)Cc2cccs2)c2ccc(-n3cnnn3)c(OC)c2)cc1 (centres unmarked) | -15.7%
